Experimental data taken from the supplement of paper PMC3334620.
In all, about 33,000 sequences were measured (“E-score (-0.5 to 0.5)”: median about -0.035, highest 2% from about 0.35 on). This is one part of the list.

Each sequence was assayed against T1, Pdr3 (UniProt P33200) (assay: PBM E-score (8-mer binding enrichment) (E-score (-0.5 to 0.5)); higher = stronger / more preferred TF binding; most listed sequences are background and not binding sites). Conditions: protein concentration: 200 nM; construct: GST-full length.
T1 sequence: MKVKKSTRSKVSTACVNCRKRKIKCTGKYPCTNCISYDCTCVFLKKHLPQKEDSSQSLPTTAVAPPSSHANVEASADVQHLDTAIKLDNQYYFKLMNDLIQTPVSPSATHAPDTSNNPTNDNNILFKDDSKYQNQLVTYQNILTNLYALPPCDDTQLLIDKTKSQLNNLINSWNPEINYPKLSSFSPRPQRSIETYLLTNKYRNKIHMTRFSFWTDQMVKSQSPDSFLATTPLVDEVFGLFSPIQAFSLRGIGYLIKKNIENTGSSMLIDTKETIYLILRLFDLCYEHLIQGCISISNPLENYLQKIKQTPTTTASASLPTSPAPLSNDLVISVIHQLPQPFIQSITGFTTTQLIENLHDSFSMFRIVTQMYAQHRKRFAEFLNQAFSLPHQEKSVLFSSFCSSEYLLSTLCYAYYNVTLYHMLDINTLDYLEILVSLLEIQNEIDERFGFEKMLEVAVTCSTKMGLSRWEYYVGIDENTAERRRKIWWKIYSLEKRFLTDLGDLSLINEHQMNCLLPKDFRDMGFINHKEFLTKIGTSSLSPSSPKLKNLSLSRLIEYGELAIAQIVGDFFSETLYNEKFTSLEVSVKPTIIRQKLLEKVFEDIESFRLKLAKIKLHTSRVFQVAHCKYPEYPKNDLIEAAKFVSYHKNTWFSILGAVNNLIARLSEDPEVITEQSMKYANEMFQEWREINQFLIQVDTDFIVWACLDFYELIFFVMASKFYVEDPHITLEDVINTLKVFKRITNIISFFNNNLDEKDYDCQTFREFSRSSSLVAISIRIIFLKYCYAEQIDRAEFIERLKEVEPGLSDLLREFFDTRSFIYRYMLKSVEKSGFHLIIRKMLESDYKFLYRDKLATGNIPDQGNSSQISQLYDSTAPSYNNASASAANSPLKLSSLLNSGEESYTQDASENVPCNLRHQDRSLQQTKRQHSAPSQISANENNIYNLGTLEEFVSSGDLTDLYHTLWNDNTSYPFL
Summary of the method: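 E-scores (a modified Wilcoxon-Mann-Whitney statistic) were assigned by the Universal PBM Analysis Suite to every ungapped eight-base word pooled with its reverse complement. The input came from universal all-10-mer Agilent arrays made double-stranded by primer extension and probed with GST-tagged yeast transcription factors at about 100-200 nM. Fluorescent anti-GST detected bound protein, and masliner normalised the scans.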

Row | Sequence | PBM E-score
1 | CTCTGGTC | -0.014
2 | AAGGCAGA | -0.284
3 | GTCTCCAC | -0.208
4 | GATCCAGA | 0.106
5 | CAGCGATA | -0.102
6 | AGATAATC | 0.0844
7 | ACACTTCT | -0.091
8 | AGGGCGGC | -0.0768
9 | ATTGATAG | -0.0537
10 | CCATATAC | 0.0579
11 | CAGCAGTC | -0.156
12 | ATATAACA | 0.0403
13 | CTATGAAA | 0.0145
14 | TACAACAA | -0.105
15 | CGCTGAGA | 0.0316
16 | TGCGTACA | -0.207
17 | ACTGTCCG | 0.303
18 | CTGTGGTA | -0.0336
19 | AACCTTAC | 0.0452
20 | GCCAGAAA | 0.119
21 | GTTCATAA | -0.188
22 | GTCTGTTA | -0.00771
23 | AATCTACC | 0.14
24 | GACACCTA | -0.128
25 | ACAAGAAT | -0.0798

Row | Sequence | PBM E-score
26 | CAGAGCAG | -0.0775
27 | ACGGCCCG | 0.22
28 | AATTGTAC | 0.0292
29 | CAACATAC | 0.0348
30 | GAGTGCGA | 0.064
31 | CTTAAGCC | -0.00776
32 | ACTTCACA | -0.222
33 | CCCAACGC | -0.134
34 | CTGGGAAC | 0.151
35 | ACTTTGGA | -0.132
36 | GGTTTAAC | -0.097
37 | GCATCCAC | 0.0386
38 | ACTCTCTC | 0.0728
39 | ATGCGTTG | -0.157
40 | ACTGTTTG | -0.123
41 | AGTATACA | -0.12
42 | GACTTAAA | -0.218
43 | ACGCATCT | 0.00401
44 | GCATGTCC | -0.00854
45 | CAGTCGCA | -0.192
46 | TGTAGACA | -0.164
47 | CATGATAA | -0.106
48 | CGGCTCAG | 0.253
49 | CTGTTCTA | -0.0869
50 | ACGCATAG | -0.0745

Row | Sequence | PBM E-score
51 | CTCGGAAC | 0.474
52 | ATCGTGTA | -0.172
53 | CTGCCACC | -0.158
54 | ACAAGCGC | 0.163
55 | ACCGAATC | 0.0805
56 | TTTCGAAA | -0.184
57 | AGGTACTG | -0.116
58 | GGGACCAC | 0.122
59 | ATTAGACA | -0.209
60 | ACGGAGAT | 0.291
61 | AAATTAAC | 0.185
62 | AGCCGATG | 0.0484
63 | CACACCTA | -0.0215
64 | CGGGGCCA | 0.306
65 | ACTGGCAT | -0.214
66 | CAATTATG | -0.00118
67 | ACGCATAT | -0.122
68 | CCTCGTTC | -0.0772
69 | TATTACGA | 0.0728
70 | ATATTGAT | 0.162
71 | ATCAAACA | -0.0121
72 | AATCCCAA | -0.151
73 | CATCCTCG | 0.169
74 | AGCGTTCC | 0.222
75 | GATTAATC | 0.276

Row | Sequence | PBM E-score
76 | CTATTGAG | -0.128
77 | CTGGTCCC | -0.0336
78 | CCAACGAG | -0.16
79 | AACTATTA | -0.0105
80 | ACTTAATG | -0.0064
81 | ATATTATG | 0.189
82 | GTCGCTAA | 0.019
83 | ATATGCAA | 0.0516
84 | AGGGCTCG | -0.0445
85 | CCTCACCA | -0.111
86 | AAGAAATG | 0.0219
87 | ACCGAGGG | -0.125
88 | AAGTGGTA | -0.173
89 | ATTTTTGA | -0.0616
90 | CTACTCTA | -0.0917
91 | CGATTAAA | 0.184
92 | GATCTGAC | -0.0022
93 | ATTTGGTA | 0.0828
94 | CCCGGGTC | 0.426
95 | AGCGCGGC | 0.107
96 | CGGGTAAA | 0.243
97 | AGTAGGCG | 0.0216
98 | CTATAGTA | 0.112
99 | CAACTCGA | -0.0562
100 | ACGACTGA | -0.236

Row | Sequence | PBM E-score
101 | CGCCATGA | -0.00304
102 | TACTGTAA | -0.0308
103 | ATTGTCTC | 0.0139
104 | TGAAACCA | 0.117
105 | ATCCTTGA | 0.0292
106 | CGAGATGC | 0.00614
107 | GGGACCCA | 0.0952
108 | ACCCTCAA | -0.158
109 | AATTTCCG | 0.442
110 | ATATCAGG | -0.177
111 | ATTTCAAA | -0.0978
112 | CACGCGCA | -0.0668
113 | AATAGCTG | -0.0173
114 | GGTGGGAA | 0.0317
115 | CCTCCGCC | 0.169
116 | GAATGCGA | 0.0648
117 | AGTAGCTA | 0.0784
118 | CTATCCAG | -0.111
119 | AGCATACA | -0.127
120 | GTTTCGGA | 0.276
121 | GGTAGCAC | -0.0627
122 | AGGCCGTG | 0.101
123 | AAGTAATT | 0.0148
124 | ATTATTTC | 0.288
125 | CCTCCCAG | -0.165

Row | Sequence | PBM E-score
126 | CACAACGC | 0.0223
127 | AGCCTTAT | -0.0184
128 | GGGATCAA | 0.0879
129 | GACGGACA | 0.335
130 | CGGTGGAG | 0.0653
131 | CTCAAGCC | 0.00839
132 | GAGAGAGC | -0.0923
133 | CGGCCGAA | 0.333
134 | AACAGGTT | -0.115
135 | AGTTCATG | 0.199
136 | CAATCAGC | -0.11
137 | ATGACGTC | 0.13
138 | AATTGATG | 0.0138
139 | CCCAGCGC | 0.0116
140 | AATTGCAA | 0.115
141 | CATGCGCC | 0.0785
142 | AGACATGG | -0.0476
143 | GTTTGTGA | -0.0801
144 | AGACGTGA | -0.0745
145 | CGTCATGC | -0.0236
146 | ATCAATGG | -0.0283
147 | AACTGAGC | 0.00305
148 | CCGATAGG | 0.161
149 | AAGGTCTC | -0.199
150 | TTCGCAAA | 0.118

Row | Sequence | PBM E-score
151 | AACCCCTG | -0.106
152 | GCAACGAA | 0.0611
153 | ATCTAAAC | -0.113
154 | AGTTGATC | 0.0242
155 | ACTGCCAA | 0.0154
156 | AGGAGAAT | -0.00643
157 | AGAATATC | 0.048
158 | ACGAACGA | -0.085
159 | CTACATTA | -0.155
160 | CACAAACA | -0.051
161 | AGAACACC | -0.0492
162 | CCATTAGA | -0.252
163 | ATCTAATG | -0.0667
164 | ACACAAGA | -0.0489
165 | GAGATTCC | 0.303
166 | AATCTTCC | 0.247
167 | ATGTTAGG | -0.142
168 | AGAAGTCT | -0.164
169 | CCCGTTCC | 0.347
170 | AAACTTAA | -0.00554
171 | AGTTAGGG | -0.0903
172 | ATTACGAC | 0.0333
